The text below walks through data of PubChem BioAssay AID485344 (National Center for Advancing Translational Sciences (NCATS), 2010).

The structures appear in SMILES notation. In all, about 340,000 compounds went through this assay and about 6,900 (2%) were called active. Rule as the data show it: active = inhibition above about 30%; inactive = below that, where a call was filed. The list shows a part of the results, in another mix than the full data. Where no call is shown, the source filed none.

Broadly, the inhibition is the change of the read-out against control, counted positive when it falls.

In this experiment the target is D(2) dopamine receptor (Homo sapiens) (UniProt P14416). Briefly: HTS Assay for Allosteric Antagonists of the Human D2 Dopamine Receptor: Primary Screen for Antagonists. Also: 0% is about no effect. The conditions noted are these: HEK293 TREx D2 cells, calcium flux, dopamine EC80; at 10 µM; stronger effect = higher value. The method in brief: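 Overnight-induced (tetracycline, 30 C) HEK293 T-REx cells carrying force-coupled D2 receive a no-wash calcium dye, then compound, then EC80 dopamine at 180 s; signals are read kinetically throughout.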
Sequence of UniProt P14416 (P14416 whole entry, looked up): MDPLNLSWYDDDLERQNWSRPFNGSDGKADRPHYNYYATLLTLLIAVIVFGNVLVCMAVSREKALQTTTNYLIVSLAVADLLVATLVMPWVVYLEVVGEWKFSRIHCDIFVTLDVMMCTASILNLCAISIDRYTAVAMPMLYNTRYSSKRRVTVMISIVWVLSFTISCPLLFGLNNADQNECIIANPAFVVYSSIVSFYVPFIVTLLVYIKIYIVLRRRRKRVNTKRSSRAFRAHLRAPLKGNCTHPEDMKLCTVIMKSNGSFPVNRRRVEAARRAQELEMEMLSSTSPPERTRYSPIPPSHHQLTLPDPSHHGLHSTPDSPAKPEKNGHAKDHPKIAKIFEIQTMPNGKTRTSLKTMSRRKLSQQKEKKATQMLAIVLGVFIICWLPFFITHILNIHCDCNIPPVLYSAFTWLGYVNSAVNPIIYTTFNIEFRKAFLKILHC
In general terms: Calcium assays in cells follow changes in intracellular calcium, usually with a dye or a luminescent sensor.
As for `COc1ccccc1CNc1nccn(-c2ccccc2)c1=O`, the inhibition came to 9.41%. With `CCOc1ncccc1C(=O)OCC(=O)NC1CCCCCC1` the figure was active: 30.8%; with `CCC(C)NC(=O)c1sc2nc(C)c(C(=O)Nc3ccc(C)cc3C)c(-c3ccccc3Cl)c2c1N` (stereo unspecified), 4.79%. With `CCN(CC)c1ccc(-c2nc(-c3ccco3)no2)cc1[N+](=O)[O-]` the figure was 5.76%; with `Cc1ccc(C)c(CNC(=O)c2cc3ccccn3n2)c1`, 14.2%. Consider `CCOC(=O)C1CCC(CN(Cc2cccc(Br)c2)S(=O)(=O)c2ccc(Cl)cc2)CC1` (stereo unspecified), for which the inhibition is -7.17%. Turning to `COc1ccc(NC(=O)Cn2cc(S(=O)(=O)Cc3ccc(F)cc3)c3ccccc32)cc1OC`, the inhibition is 5.06%. With `CCOC(=O)N1CCc2c(sc3c2C(=O)NC(c2ccccc2F)N3)C1` (stereo unspecified) the figure was 11.8%; with `CC1Cc2cc(S(=O)(=O)NCc3ccc(N(C)C)cc3)ccc2N1C(=O)C1CCC1` (stereo unspecified), 6.34%.

For the molecule `CCN1C(=O)C(Cc2nc3ccccc3c(=O)n2-c2ccc(OC)cc2)c2ccccc21` (stereo unspecified), the inhibition stood at 23.7%. The result for `COc1ccc(N2CC(NC(=O)COc3ccc4ccccc4c3)CC2=O)cc1OC` (stereo unspecified) reads -26.3%; that for `Cc1c(C)n(C(=O)CN2CCC(C(N)=O)CC2)c2ccccc12`, active: 36.3%. For the molecule `CC1=Nc2cc(C(=O)NCCc3ccc(Cl)cc3)ccc2Sc2c(C)ccc(C)c21`, the inhibition worked out at 7.19%. For the molecule `CC1CCCCN1CCCNC(=O)c1cc(Sc2ccc(Cl)cc2)nc2ccccc12` (stereo unspecified), the inhibition is -10.7%. With `CCOC(=O)CC(=O)CSc1nc2ccccc2c(=O)n1CCc1ccc(S(N)(=O)=O)cc1` the figure was 24.7%; with `CC(=O)Nc1ccc(NC(=O)CCS(=O)(=O)c2ccc3c(c2)CC(=O)N3C)cc1`, 2.13%; with `COc1ccccc1CNC(=O)c1oc2ccc3c(c2c1C)C(=O)CC(C)(C)O3`, 3.27%.

For `COc1ccc(-c2noc(-c3ccc(NCC4CCCO4)c([N+](=O)[O-])c3)n2)cc1OC` (stereo unspecified), the inhibition is 1.06%. Consider `CCN1CCN(C(=O)c2cc3c(s2)-c2ccccc2S(=O)(=O)C3)CC1`, for which the inhibition was active: 45.3%.

As to `O=C(NC(=S)N1CCN(c2ccc([N+](=O)[O-])cc2)CC1)c1ccccc1`, the inhibition is active: 31%.

For the molecule `COc1ccccc1C(=O)OCc1cc(=O)n2nc(C(C)C)sc2n1`, the inhibition is -2.56%. `CCCC1=Nc2cc(C(=O)N3CCC(C)CC3)ccc2Sc2ccc(C)cc21`: the inhibition was determined as 0.436%. With `CC1=C(C(=O)OC2CCCCCC2)C(c2cccc(Cl)c2)CC(=O)N1` (stereo unspecified) the figure was 5.74%; with `Cc1ccc2c(=O)c(C(=O)c3cccc(Cl)c3)cn(CC(=O)Nc3ccccc3C(F)(F)F)c2n1`, -0.576%. The result for `CCOc1ccc(-n2nc3ccc(NC(=O)c4ccc(-c5cccc(Cl)c5)o4)cc3n2)cc1` reads 4.1%; that for `Cc1nc2scc(C)n2c(=O)c1S(=O)(=O)Nc1cccc(C(F)(F)F)c1`, -11.4%.
